# In all, about 16,000 sequences were measured (“Z-score”: median about -0.37, highest 2% from about 3.1 on). The list shows a part of the results.
# System: RBM10 RRM1-ZnF-RRM2 (GST-tagged construct)
# Assay: RNAcompete 7-mer binding Z-score; higher = stronger binding preference
# Outline: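 Each heptamer motif was given a one-sided Z-score for enrichment across the probes that contained it. GST-tagged RBM10 constructs (20 pmol) were combined with 1.5 nmol of a designed pool of 241 399 RNAs of up to 41 nt, transcribed from microarray-derived DNA templates. Binding took place in 1 ml Hepes pH 7.8 buffer containing KCl, NaCl, glycerol, DTT, BSA and glutathione Sepharose beads for 30 min at 4°C. After four 2-min washes at 4°C, bound RNA was identified by microarray hybridisation.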
row,Sequence,RNAcompete 7-mer binding Z-score
1,AGUACCA,-0.133
2,GGUGGGC,3.19
3,UGUGCCU,-0.446
4,GUUUAUA,-0.508
5,GCGCCUG,-0.398
6,CCAGGCA,-0.195
7,GGCCGUG,0.599
8,UUUGUUG,-0.242
9,CCCAAGG,-0.253
10,UUUAUGG,0.075
11,CCGCGUU,-0.817
12,CGAAGCG,0.782
13,GUGGCAU,0.887
14,GUCACGC,-0.315
15,AAUAAGG,1.52
16,GACGGUA,1.24
17,GCUCGUU,-0.577
18,CUUCAUG,-0.814
19,GAUCAAA,-0.275
20,GACAGGA,2.33
21,CGCUAGA,-0.486
22,AGUCCAA,-0.464
23,AUUCUGC,-0.748

row,Sequence,RNAcompete 7-mer binding Z-score
1,GAUAUUU,-0.464
2,UCUAUUA,-0.686
3,GCGUAGA,0.403
4,GUCCAGC,-0.486
5,ACCGUGC,-0.464
6,ACUCAAU,-0.65
7,GUUCAUA,-0.471
8,CGUGAUA,-0.0853
9,UAGUGAG,0.756
10,UACAAUC,-0.471
11,UUGCCCC,-0.624
12,UUCAAUG,0.0313
13,GCACCCG,-0.602
14,ACGUACA,-0.103
15,CGAAUUG,-0.00877
16,AUGUUGC,-0.391
17,ACGAAGU,0.0604
18,GAGGCCG,0.166
19,UGGGGCA,3.52
20,UAAACCA,-0.151
21,AUGCUUU,-0.85
22,AUAAUUU,-0.755
23,GUCGUAC,0.0823

row,Sequence,RNAcompete 7-mer binding Z-score
1,GUCUAAC,-0.486
2,CGGGAUA,1.44
3,ACCAAGC,-0.471
4,GAACCUU,-0.788
5,CAUCGGA,-0.315
6,AGGCUUA,-0.431
7,CCUCCUA,-0.763
8,GGAACGG,4.03
9,UCGGAGG,1.2
10,AGCGGGC,1.57
11,UUCAUGU,-0.632
12,GACUAAA,-0.191
13,AUCACGU,-0.395
14,GUCAAAU,-0.395
15,AUCGACU,-0.865
16,AAAAUCA,-0.3
17,GAGCAGC,0.119
18,CGGAACA,0.548
19,UGCUUAA,-0.763
20,ACUAUAG,-0.195
21,UUAUCUA,-0.61
22,UCGCCAC,-0.734
23,ACGGUAC,0.472

row,Sequence,RNAcompete 7-mer binding Z-score
1,AUCGGGG,2.49
2,CUGACUU,-0.941
3,AUCCGGU,-0.202
4,CAUGCAU,-0.65
5,GUAUGGG,4.06
6,AGUCAUC,-0.679
7,AACGCGG,0.457
8,CAGUUGU,-0.643
9,UCCUCCA,-0.744
10,UGGGCUU,0.854
11,ACAAGAC,-0.275
12,GCACUGG,0.72
13,ACGCGUA,-0.0452
14,GGGUAGC,2.69
15,AAGAAUG,1.09
16,GACUUUG,-0.708
17,AGGAACC,-0.0707
18,AAUAGGG,3.5
19,GAUCCAA,-0.464
20,AAAUGUA,0.0859
21,CAUGCGG,0.341
22,GGCCAUG,0.181
23,GCAACAC,-0.326
